# Experimental data as given in the RNAGym collection of RNA variant scans (doi:10.7554/elife.90254).
# The source gives no read counts; variants with many changes may rest on few reads.
# B1: LINE1-mini (parent)
# chain: GGCAGAGCUCAACACAGCGUGGCAAAGUGGCUGUGGCUAGACUGCC
# Variants of: B1
# Experiment: self-cleavage, relative activity (ratio to wild type); higher = more cleavage; in vitro, sequencing; the parent is a self-cleaving ribozyme
row,Variant,self-cleavage
1,G1A A24U G35C C45A,0.02
2,G1A A25C G33C C37U,0.04
3,G1A A25C U34C C42A,0.07
4,G1A A25G U34A,0.08
5,G1A A25U A26U C45U,0.69
6,G1A A25U G36C U38G,0.04
7,G1A A25U U28G C42G,0.01
8,G1A A26C A41G,0.08
9,G1A A26C G35A,0.17
10,G1A A26G G33U,0.26
11,G1A A26U C31G C46A,0.15
12,G1A A26U G36A,0.17
13,G1A C3A A11G A25C C46U,0.07
14,G1A C3A A14U,1.62
15,G1A C3A A39U,2.67
16,G1A C3A C8A C13A C42A,1.18
17,G1A C3A C15G G27U,0.22
18,G1A C3A G5U G7U U9G C31A G33A,1.75
19,G1A C3A G19A A39C,0.17
20,G1A C3A G21U G30C,0.9
21,G1A C3A G22A U38A,0.98

row,Variant,self-cleavage
1,G1A C3A U9G U34G G36A C45A,0.12
2,G1A C3A U20G A39G C42G,1.07
3,G1A C3A U38G A41G,0.68
4,G1A C3G A6G A12G U20G G44C C45U,0.01
5,G1A C3G C15G G19A G21A,0.09
6,G1A C3G G7C A11G G22U G27A,0.14
7,G1A C3G G19U U20G G22U,0.3
8,G1A C3G G21U,0.49
9,G1A C3G G21U G30U G33U,0.82
10,G1A C3G G27A,0.47
11,G1A C3G G35C G40U,0.16
12,G1A C3G G36C A41U C42U G44U,0.17
13,G1A C3G G44U,0.24
14,G1A C3G U34C G35C,0.17
15,G1A C3U A11C G33A,0.07
16,G1A C3U A11G C23A C37A C45A,0.02
17,G1A C3U A14G G36C G44C,0.32
18,G1A C3U C8A A16U G19C C46U,1.63
19,G1A C3U C8U,0.07
20,G1A C3U G7A C31U,1.2
21,G1A C3U G27U U43A,0.69

row,Variant,self-cleavage
1,G1A C3U U20C A25G U28A G40C C42G,0.39
2,G1A C3U U28G,0.47
3,G1A C8A A12U G22C C23U U38C A41U C42A,1.26
4,G1A C8A C10U G44A C46A,0.04
5,G1A C8A C13G A14G U28G G33C,0.05
6,G1A C8A C13G C18A G22A A25U G29C,0.96
7,G1A C8A C31G C46U,1.11
8,G1A C8A G27U A41C,0.07
9,G1A C8A G29U,1.16
10,G1A C8A G36C G44C,0.26
11,G1A C8A U9G,0.11
12,G1A C8A U28A G36A U38A G44A,0.42
13,G1A C8G A12C G22C,0.02
14,G1A C8G A14U A26C C37U,0.09
15,G1A C8G A16U G27A G36U A39C C45A,0.1
16,G1A C8G A41C,0.24
17,G1A C8G C18U C23A G29C,0.03
18,G1A C8G G17C,0.03
19,G1A C8G G36C G40U,0.18
20,G1A C8G G36U A41G,0.12
21,G1A C8G G44A,0.02

row,Variant,self-cleavage
1,G1A C8G U9G A16C C37A A41U,0.3
2,G1A C8U A12G C42G,0.59
3,G1A C8U A12G G17A C45A,0.6
4,G1A C8U A12U A25G G27U,0.08
5,G1A C8U A16C,0.3
6,G1A C8U A16G,0.14
7,G1A C8U A16G A25G A26U U43A G44A,0.2
8,G1A C8U A24G,1.34
9,G1A C8U A24U U28G,1.06
10,G1A C8U A25G G33U,0.05
11,G1A C8U C10A G44A,0.07
12,G1A C8U C23G C46A,0.96
13,G1A C8U C23U G35U G40C,0.13
14,G1A C8U C31G,0.58
15,G1A C8U G17A C31A,0.4
16,G1A C10A A12C,0.04
17,G1A C10A A12G G17A G21C A41U,0.04
18,G1A C10A A12U C13A G27C C42G,0.02
19,G1A C10A A14U G29C G30A,0.01
20,G1A C10A A24U G36U,0.04
21,G1A C10A C18A G29A,0.31
